Results taken from PubChem BioAssay AID588579 (National Center for Advancing Translational Sciences (NCATS), 2011).
Several values for one entry are separate records, joined by “and”; a condition that tells them apart may be missing. Identical values can stand only once. Out of some 400,000 compounds screened, about 2,200 (0.55%) were called active. The inconclusive results got no clear call from the source; some entries with a clear call stand among them for comparison. Calls follow the shape of the dose curve; as a rule, active = well fitted inhibition curve with a large enough effect; inconclusive = small, poorly fitted or top-dose-only effect, or another doubt; inactive = no such curve, though single readings can be large or run the other way. Potencies of inconclusive entries are doubtful fits and often do not repeat.

target: DNA polymerase kappa (Homo sapiens) (UniProt Q9UBT6); assay: qHTS for Inhibitors of Polymerase Kappa; settings: purified Pol kappa, fluorescent DNA synthesis assay, 10 min; series mostly up to 107 µM
Sequence of UniProt Q9UBT6 (Q9UBT6 whole entry, looked up): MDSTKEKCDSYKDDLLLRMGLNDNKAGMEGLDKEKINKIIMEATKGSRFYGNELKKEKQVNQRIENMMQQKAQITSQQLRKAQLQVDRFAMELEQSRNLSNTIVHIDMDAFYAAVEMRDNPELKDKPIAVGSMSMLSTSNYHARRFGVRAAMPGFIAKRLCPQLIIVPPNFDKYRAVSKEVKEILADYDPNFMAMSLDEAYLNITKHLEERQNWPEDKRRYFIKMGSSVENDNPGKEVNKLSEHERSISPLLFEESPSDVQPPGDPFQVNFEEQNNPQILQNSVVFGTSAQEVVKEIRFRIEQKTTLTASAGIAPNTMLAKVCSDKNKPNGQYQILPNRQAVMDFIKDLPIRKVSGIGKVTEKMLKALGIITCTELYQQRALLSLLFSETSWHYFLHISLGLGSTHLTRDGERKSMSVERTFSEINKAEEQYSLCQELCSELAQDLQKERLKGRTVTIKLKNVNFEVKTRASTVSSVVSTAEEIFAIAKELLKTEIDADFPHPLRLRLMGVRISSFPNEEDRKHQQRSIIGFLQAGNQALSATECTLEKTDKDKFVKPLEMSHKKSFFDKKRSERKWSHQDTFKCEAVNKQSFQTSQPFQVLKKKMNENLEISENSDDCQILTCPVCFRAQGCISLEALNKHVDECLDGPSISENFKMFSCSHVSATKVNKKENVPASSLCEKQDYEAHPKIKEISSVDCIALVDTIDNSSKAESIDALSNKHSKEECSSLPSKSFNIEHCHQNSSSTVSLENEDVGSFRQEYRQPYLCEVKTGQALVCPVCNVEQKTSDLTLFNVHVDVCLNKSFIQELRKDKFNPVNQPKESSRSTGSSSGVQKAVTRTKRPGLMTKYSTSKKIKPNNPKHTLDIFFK
Method in brief: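 Kinetic fluorescence readout at 0 and 10 min followed reaction start with substrate at 50 nM final. Beforehand, enzyme (10 nM Pol kappa) stood 15 min with compound at room temperature; buffer-only wells were negative controls.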
Potency is read from the fitted curve at half-maximal effect; tags tell the direction and shape of the fitted curve.

SMILES | Potency
O=c1oc2ccc3ccccc3c2cc1-c1nnc(Nc2ccc(F)cc2)s1 | inactive
CC(=O)Nc1ccc2c(COC(=O)CC3Sc4ccccc4NC3=O)cc(=O)oc2c1 (configuration not stated) | active: 35.5 µM
COc1cccc(C(C2=C(O)CC(C)(C)CC2=O)C2C(=O)CC(C)(C)CC2=O)c1 (configuration not stated) | inconclusive: 79.4 µM [inhibitor, partial curve, poor fit]
Oc1ccc(-c2csc(Nc3ccccn3)n2)cc1O | inconclusive: 56.2 µM [inhibitor, partial curve, poor fit]
NS(=O)(=O)c1cc2c(cc1C(F)(F)F)NC(Cc1ccccc1)NS2(=O)=O (configuration not stated) | inconclusive: 10 µM [inhibitor, partial curve, poor fit]
CCOC(=O)c1cccc(NS(=O)(=O)Cc2ccccc2)c1 | inconclusive: 2.82 µM [inhibitor, partial curve, poor fit]
Cc1ccc(C(C)C)c(OC(C)C(=O)NCC2(N(C)C)CCCCC2)c1 (configuration not stated) | inactive
CCOC(=O)N1CCN(S(=O)(=O)c2ccc(OC)c3ccccc23)CC1 | inactive
C#CCSc1nc2sc3c(c2c(=O)n1C)CCC3 | inconclusive: 89.1 µM [inhibitor, single point]
O=C(c1ccco1)N1CCC2(CC1)CN(c1cccc(-c3ccccc3)c1)C2 | inconclusive: 11.2 µM [inhibitor, partial curve, poor fit]
CCSc1nnc(NC(=O)CSc2sc3c(O)cc(=O)[nH]c3c2C#N)s1 | active: 20 µM
CCn1cc(C(=O)N2CCN(c3cccc(C)c3C)CC2)c2cc(OC)c(OC)cc2c1=O | inconclusive: 112 µM [inhibitor, partial curve, poor fit]
CCn1cc2nc(SCC(=O)Nc3ccccc3C(F)(F)F)n(Cc3ccc(C)cc3)c(=O)c2n1 | inconclusive: 89.1 µM [inhibitor, single point]
CC1CCN(CC(=O)Nc2ccc(S(=O)(=O)N3CCC(C)CC3)cc2)CC1 | inactive
COc1ccccc1NC(=O)c1c(C)cc(C)nc1SCC(=O)c1ccc(Cl)cc1 | inactive
Cc1ccc(N=C2NC(=O)/C(=C/C=C/c3ccco3)S2)cc1C | active: 28.2 µM
O=C(O)CN1C(=O)/C(=C/c2ccc(N3CCCCC3)o2)SC1=S | active: 50.1 µM
CN(C)c1nc2c(Br)c(Br)c(Br)c(Br)c2[nH]1 | inactive
Cc1cccc(C)c1-n1ncc(C(=O)N2CCN(c3ccccn3)CC2)c1C1CCN(C(=O)OC(C)(C)C)CC1 | inconclusive: 89.1 µM [inhibitor, single point]
Cc1sc2nc(CSC(C)C(=O)Nc3cc(S(C)(=O)=O)ccc3Cl)[nH]c(=O)c2c1C (configuration not stated) | inconclusive: 89.1 µM [inhibitor, single point]
O=C(c1coc(=O)c(Br)c1)N1CCOCC1 | inconclusive: 89.1 µM [inhibitor, single point]
CCN(CC)S(=O)(=O)c1cccc(C(=O)N/N=C/c2ccc(O)c(O)c2O)c1 | inconclusive: 89.1 µM [inhibitor, single point]
Cc1ccc(C)c2c1NC(C(=O)O)C1CC=CC21 (configuration not stated) | active: 3.16 µM

SMILES | Potency
CCCOc1ccc(-c2nonc2NC(=O)c2oc3ccc(C)cc3c2C)cc1OCCC | inconclusive: 79.4 µM [inhibitor, partial curve, poor fit]
COc1ccc(/C=C2/SC(=S)N(c3ccc(S(=O)(=O)Nc4nccs4)cc3)C2=O)cc1 | active: 50.1 µM
CCCCC1=CC2=CC(=O)C(C)(OC(=O)CC)C(=O)C2=CO1 (configuration not stated) | inconclusive: 56.2 µM [inhibitor, partial curve, poor fit]
CC(C)c1cccc(-c2ccc3c(c2)S(=O)(=O)c2cccc(C(=O)NCc4ccco4)c2C3=O)c1 | inconclusive: 89.1 µM [inhibitor, single point]
O=C(CC(=O)Nc1cccc(Cl)c1)N/N=C\c1ccccc1 | inconclusive: 89.1 µM [inhibitor, single point]
CCCn1c(=O)c2sccc2n2c(CCCC(=O)NCc3ccco3)nnc12 | inconclusive: 89.1 µM [inhibitor, single point]
COc1ccc(/C=N\NC(=O)c2cc(O)c(O)c(O)c2)cc1CN1CCN(c2ccc(F)cc2)CC1 | inconclusive: 79.4 µM [inhibitor, partial curve, poor fit]
O=C(CCc1nc2sc3c(c2c(=O)[nH]1)CCCC3)NCCc1ccccc1 | inconclusive: 100 µM [inhibitor, single point]
CCCC(=Nc1ccc(N)cc1)C1=C(O)C(C(=O)OC)C(C)(C)CC1=O (configuration not stated) | inconclusive: 79.4 µM [inhibitor, partial curve, poor fit]
Cc1cc(C)nc(NS(=O)(=O)c2ccc(-n3cccc3)cc2)n1 | active: 79.4 µM
COc1ccc(/C=N/NC(=O)c2cc(C(C)(C)C)[nH]n2)cc1COc1ccc(F)cc1F | inactive
COC1=CC(=O)C(O)=C(CCCCCCC/C=C/CCCCCCCC2=C(O)C(=O)C=C(OC)C2=O)C1=O | active: 20 µM
COC(=O)\C(C(C)=O)=C(/C=C/C=C/C=C/N(C)C)N(C)C | active: 22.4 µM
N#Cc1ccsc1NC(=O)CN1CCN(S(=O)(=O)c2ccc3ccccc3c2)CC1 | inconclusive: 89.1 µM [inhibitor, single point]
O=C(Cc1ccccc1)NNC(=O)c1ccc(NC(=O)c2ccccc2)cc1 | inactive
COc1cccc(NC(=O)CCNS(=O)(=O)c2ccc(Br)s2)c1 | inconclusive: 89.1 µM [inhibitor, partial curve, poor fit]
CO/N=C(\C(=O)N[C@@H]1C(=O)N2C(C(=O)O)=C(COC(C)=O)CS[C@H]12)c1csc(N)n1 (stereo in doubt) | active: 35.5 µM and active: 79.4 µM and active: 39.8 µM
CCc1ccc(NC(=O)C2CCN(C(=O)N3CC(CC)Oc4ccccc43)CC2)cc1 (configuration not stated) | inactive
O=C(Cc1cccs1)N1CCN(c2ccc([N+](=O)[O-])cc2)CC1 | inconclusive: 89.1 µM [inhibitor, partial curve, poor fit]
C=CCN1C(=O)CS/C1=C(\C#N)S(=O)(=O)c1ccc(C)cc1 | inconclusive: 63.1 µM [inhibitor, partial curve, poor fit]
Cc1cc(C)c(S(=O)(=O)c2ccccc2)c(Cl)n1 | inactive
CC(Oc1ccccc1)C(=O)Nc1oc(-c2ccco2)c(-c2ccco2)c1C#N (configuration not stated) | inconclusive: 39.8 µM [inhibitor, partial curve]
CCCCNC(=O)CSc1nnc(Cc2ccc(Cl)c(Cl)c2)c(=O)[nH]1 | active: 89.1 µM

SMILES | Potency
O=C(CSc1cn(CCNC(=O)c2c(F)cccc2F)c2ccccc12)Nc1ccc2c(c1)OCCO2 | inactive
CCCSc1nnc(NC(=O)CSc2sc3c(O)cc(=O)[nH]c3c2C#N)s1 | active: 20 µM
CC1=CN2C(=N)/C(=C/c3ccc([N+](=O)[O-])o3)C(=O)N=C2S1 | active: 31.6 µM
c1ccc2c(c1)nc1n2CCS1 | active: 89.1 µM
CN(Cc1ccccc1)S(=O)(=O)c1ccc2[nH]c(=O)ccc2c1 | inactive
O=C(COc1ccccc1)N/N=C/c1ccc([N+](=O)[O-])o1 | inconclusive: 89.1 µM [inhibitor, single point]
COc1cc(Cl)c(C)cc1NC(=O)CSc1ncc(S(=O)(=O)c2ccc(C(C)(C)C)cc2)c(=O)[nH]1 | inconclusive: 89.1 µM [inhibitor, single point]
CC(=O)C(C(C)=O)c1c(Cl)c(O)c(O)c2c(C(=O)c3ccccc3)coc12 | inconclusive: 56.2 µM [inhibitor, partial curve, poor fit]
COc1ccc(-c2noc(CSCC(=O)Nc3cccc(C(F)(F)F)c3)n2)cc1OC | inactive
COc1ccc(CN2CCC(Oc3cc(C(=O)NC4CC4)ccc3OC)CC2)c(O)c1 | inconclusive: 89.1 µM [inhibitor, single point]
O=C(/C=C/c1ccc(F)cc1)Nc1nc2n(n1)C(c1ccc(Cl)cc1)C=C(c1ccccc1)N2 (configuration not stated) | inactive
CCOc1cc(/C=N/NC(=O)c2ccc(O)cc2)ccc1Oc1nc(Cl)ncc1F | inactive
CC(=O)c1cccc(-c2ccc3c(=O)[nH]c(Nc4ccccc4)cc3c2)c1 | inconclusive: 79.4 µM [inhibitor, partial curve, poor fit]
CCCN(C(=O)c1cccc(-n2cccc2)c1)c1c(N)n(Cc2ccccc2)c(=O)[nH]c1=O | active: 28.2 µM
Cc1cc(C)c(S(=O)(=O)/N=C2/C=C(Sc3ncn[nH]3)C(=O)c3ccccc32)cc1C | inconclusive: 56.2 µM [inhibitor, partial curve, poor fit]
COc1cc2ccc(=O)oc2cc1OCC(O)C(C)(C)O (configuration not stated) | inconclusive: 89.1 µM [inhibitor, partial curve, poor fit]
COc1cc(/C=C2\SC(=N)N(c3ccc(F)cc3)C2=O)ccc1O | inactive
COc1ccc(C(=O)N(c2ccc(OC)cc2)S(=O)(=O)c2cccs2)cc1 | inactive
Cc1ccc(-n2c(Cc3cccn3C)nnc2SCC(=O)NCc2ccco2)cc1 | inconclusive: 89.1 µM [inhibitor, single point]
CC(C)n1c(=S)[nH]c2scc(-c3cccs3)c2c1=O | inconclusive: 89.1 µM [inhibitor, single point]
CC(NC(=O)Nc1cc(Cl)ccc1Cl)c1c(-n2cccc2)sc2c1CCCC2 (configuration not stated) | inconclusive: 89.1 µM [inhibitor, partial curve, poor fit]
